Measurements taken from publication PMC4176354.
These are yes or no findings as the source states them, for the method shown. Binding seen in cells or lysates may run through a third protein. Some results given as binding are weak or reduced against the parent protein; the word gives no strength. Tags and fused reporters may be left off the sequences shown.

The chains behind the UniProt entries cited, without tags or fusion partners.
UniProt P38859: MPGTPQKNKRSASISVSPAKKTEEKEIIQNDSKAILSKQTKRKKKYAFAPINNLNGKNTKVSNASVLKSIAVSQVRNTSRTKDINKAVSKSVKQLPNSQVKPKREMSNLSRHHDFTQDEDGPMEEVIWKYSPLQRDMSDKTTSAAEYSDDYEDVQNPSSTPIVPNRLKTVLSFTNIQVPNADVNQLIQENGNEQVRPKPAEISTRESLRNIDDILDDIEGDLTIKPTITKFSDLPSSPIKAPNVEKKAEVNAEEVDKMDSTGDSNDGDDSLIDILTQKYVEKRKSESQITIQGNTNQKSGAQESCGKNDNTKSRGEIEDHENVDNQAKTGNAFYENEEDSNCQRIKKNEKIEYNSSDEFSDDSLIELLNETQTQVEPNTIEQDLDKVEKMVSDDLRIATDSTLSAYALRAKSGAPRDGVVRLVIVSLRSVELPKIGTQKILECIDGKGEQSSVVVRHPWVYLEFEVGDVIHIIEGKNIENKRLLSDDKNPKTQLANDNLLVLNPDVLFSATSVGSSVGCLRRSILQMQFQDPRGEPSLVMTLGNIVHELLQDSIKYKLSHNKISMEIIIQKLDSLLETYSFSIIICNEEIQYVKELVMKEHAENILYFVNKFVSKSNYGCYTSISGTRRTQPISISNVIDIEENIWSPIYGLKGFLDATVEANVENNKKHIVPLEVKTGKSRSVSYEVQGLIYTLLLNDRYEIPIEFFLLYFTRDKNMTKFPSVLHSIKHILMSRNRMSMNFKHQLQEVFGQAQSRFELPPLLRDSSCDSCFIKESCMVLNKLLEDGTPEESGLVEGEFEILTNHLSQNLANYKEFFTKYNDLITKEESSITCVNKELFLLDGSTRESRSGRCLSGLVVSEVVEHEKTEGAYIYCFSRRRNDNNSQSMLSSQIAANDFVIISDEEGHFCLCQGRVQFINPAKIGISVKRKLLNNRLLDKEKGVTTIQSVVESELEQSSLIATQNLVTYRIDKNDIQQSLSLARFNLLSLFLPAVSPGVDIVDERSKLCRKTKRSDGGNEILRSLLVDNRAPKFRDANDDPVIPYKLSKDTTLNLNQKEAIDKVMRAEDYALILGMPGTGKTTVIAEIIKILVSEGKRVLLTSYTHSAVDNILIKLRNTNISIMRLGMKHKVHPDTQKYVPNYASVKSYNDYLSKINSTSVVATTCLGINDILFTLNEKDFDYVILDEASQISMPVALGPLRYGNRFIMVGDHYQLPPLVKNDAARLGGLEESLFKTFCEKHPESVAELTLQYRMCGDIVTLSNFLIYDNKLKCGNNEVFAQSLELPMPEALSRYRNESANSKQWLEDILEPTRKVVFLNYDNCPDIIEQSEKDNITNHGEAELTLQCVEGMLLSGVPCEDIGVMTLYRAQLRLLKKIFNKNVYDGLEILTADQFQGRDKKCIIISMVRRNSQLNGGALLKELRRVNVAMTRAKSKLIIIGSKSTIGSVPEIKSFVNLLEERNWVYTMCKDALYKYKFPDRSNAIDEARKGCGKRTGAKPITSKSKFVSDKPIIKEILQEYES

What was measured:
Experiment in all cases: co-IP; yeast cell lysates in IP buffer (pH 7.5, 20 mM HEPES, 140 mM NaCl, 1 mM EDTA, 1% Triton X 100, 0.1% sodium deoxycholate); anti-HA or anti-Myc antibody, protein G Dynabeads, 4°C overnight; four washes; western blot with anti-HA or anti-Myc
Dna2-HA (S. cerevisiae) = Dna2-HA (S. cerevisiae) (UniProt P38859)
Exo1-HA (S. cerevisiae) = biological target: T1, Exo1-HA (S. cerevisiae) (UniProt P39875)
T1 sequence: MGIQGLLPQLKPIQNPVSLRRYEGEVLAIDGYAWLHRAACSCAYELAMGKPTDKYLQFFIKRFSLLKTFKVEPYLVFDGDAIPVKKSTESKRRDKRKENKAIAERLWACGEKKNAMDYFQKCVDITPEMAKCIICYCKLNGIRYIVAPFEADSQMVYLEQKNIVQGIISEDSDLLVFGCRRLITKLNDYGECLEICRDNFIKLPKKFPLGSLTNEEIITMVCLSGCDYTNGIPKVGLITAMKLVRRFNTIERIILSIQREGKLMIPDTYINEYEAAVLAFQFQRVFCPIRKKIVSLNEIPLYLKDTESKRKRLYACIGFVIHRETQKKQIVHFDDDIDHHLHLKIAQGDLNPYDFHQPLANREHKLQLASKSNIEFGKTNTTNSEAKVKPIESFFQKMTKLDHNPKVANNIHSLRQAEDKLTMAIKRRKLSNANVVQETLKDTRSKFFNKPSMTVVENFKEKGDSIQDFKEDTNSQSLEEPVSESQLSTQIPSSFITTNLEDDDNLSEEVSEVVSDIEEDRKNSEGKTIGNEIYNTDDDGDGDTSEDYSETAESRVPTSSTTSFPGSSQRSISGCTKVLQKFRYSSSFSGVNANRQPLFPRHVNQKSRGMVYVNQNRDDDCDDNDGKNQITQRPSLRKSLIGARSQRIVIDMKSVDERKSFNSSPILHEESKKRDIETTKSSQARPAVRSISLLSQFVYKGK

Mec3-HA (S. cerevisiae) = biological target: T2, Mec3-HA (S. cerevisiae) (UniProt Q02574)
T2 sequence: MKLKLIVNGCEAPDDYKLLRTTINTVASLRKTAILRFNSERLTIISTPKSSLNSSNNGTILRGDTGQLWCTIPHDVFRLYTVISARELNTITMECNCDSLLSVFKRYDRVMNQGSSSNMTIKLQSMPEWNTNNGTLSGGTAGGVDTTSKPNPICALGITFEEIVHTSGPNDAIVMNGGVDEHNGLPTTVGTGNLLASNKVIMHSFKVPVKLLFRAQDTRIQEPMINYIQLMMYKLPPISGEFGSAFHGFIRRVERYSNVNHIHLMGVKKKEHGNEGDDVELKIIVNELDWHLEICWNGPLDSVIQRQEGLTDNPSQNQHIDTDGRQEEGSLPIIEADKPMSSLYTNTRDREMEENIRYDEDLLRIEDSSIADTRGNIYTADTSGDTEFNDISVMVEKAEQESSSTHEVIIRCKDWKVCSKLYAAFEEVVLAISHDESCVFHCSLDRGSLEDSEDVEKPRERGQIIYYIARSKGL

Sgs1-HA (S. cerevisiae) = biological target: T3, Sgs1-HA (S. cerevisiae) (UniProt P35187)
T3 sequence: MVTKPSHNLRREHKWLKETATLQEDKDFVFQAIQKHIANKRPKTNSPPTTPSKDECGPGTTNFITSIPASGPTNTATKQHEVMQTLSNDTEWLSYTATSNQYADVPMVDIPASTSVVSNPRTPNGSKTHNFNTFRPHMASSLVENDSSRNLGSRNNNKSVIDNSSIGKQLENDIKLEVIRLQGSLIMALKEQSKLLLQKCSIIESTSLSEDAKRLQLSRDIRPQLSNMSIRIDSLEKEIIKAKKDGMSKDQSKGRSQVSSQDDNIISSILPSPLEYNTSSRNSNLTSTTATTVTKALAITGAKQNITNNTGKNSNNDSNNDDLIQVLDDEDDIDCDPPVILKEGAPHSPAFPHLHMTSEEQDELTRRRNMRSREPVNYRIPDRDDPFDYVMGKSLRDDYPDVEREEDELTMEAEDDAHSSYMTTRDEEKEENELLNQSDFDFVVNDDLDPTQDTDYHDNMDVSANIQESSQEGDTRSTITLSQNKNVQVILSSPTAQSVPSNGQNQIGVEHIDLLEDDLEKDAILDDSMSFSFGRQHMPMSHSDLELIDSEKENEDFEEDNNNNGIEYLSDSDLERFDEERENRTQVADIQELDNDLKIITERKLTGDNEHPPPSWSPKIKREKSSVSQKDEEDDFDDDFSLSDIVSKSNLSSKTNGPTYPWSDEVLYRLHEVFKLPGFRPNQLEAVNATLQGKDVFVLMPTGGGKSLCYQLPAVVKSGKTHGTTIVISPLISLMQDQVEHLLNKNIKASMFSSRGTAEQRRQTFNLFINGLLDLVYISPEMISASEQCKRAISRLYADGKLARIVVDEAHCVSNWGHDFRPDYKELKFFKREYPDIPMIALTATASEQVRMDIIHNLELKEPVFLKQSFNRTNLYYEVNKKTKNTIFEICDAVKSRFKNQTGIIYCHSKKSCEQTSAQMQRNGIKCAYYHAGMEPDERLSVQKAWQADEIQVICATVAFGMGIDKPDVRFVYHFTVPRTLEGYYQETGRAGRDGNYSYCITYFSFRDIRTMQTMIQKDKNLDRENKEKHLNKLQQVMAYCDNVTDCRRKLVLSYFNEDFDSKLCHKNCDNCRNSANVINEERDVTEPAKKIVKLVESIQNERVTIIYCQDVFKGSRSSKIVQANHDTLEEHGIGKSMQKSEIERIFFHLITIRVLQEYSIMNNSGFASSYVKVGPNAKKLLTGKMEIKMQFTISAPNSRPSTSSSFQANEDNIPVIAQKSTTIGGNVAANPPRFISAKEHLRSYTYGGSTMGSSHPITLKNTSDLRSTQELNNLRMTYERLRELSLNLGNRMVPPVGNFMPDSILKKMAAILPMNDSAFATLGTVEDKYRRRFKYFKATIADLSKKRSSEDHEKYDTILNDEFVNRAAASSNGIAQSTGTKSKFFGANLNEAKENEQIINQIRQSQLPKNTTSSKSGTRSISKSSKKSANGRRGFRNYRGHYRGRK

B1: Ddc1-Myc (protein, UniProt Q08949 1-612)
chain: MSFKATITESGKQNIWFRAIYVLSTIQDDIKITVTTNELIAWSMNETDTTLCQVRFQKSFFEEYEFKPHEIVFGENGVQVIEDTYGNSHKLYSFRVNGRHLTTISRKPDGDGIKSFTIAVNNTSTCPESLANRLIVVIEMDSLIVKEYCPQFQPIKYDPIIINLKYKRRFLDVFGTAASDRNPQEPLDPKLLDVFTNTERELTSALFNEEVESDIRKRNQLTAADEINYICCNSTLLKNFLDNCNVNVTDEVKLEINVHRLSITAFTKAVYGKNNDLLRNALSMSNTISTLDLEHYCLFTTIEDEKQDKRSHSKRREHMKSIIFKLKDFKNFITIGPSWKTTQDGNDNISLWFCHPGDPILMQMQKPGVKLELVEVTDSNINDDILEGKFIKTAISGSKEEAGLKDNKESCESPLKSKTALKRENLPHSVAGTRNSPLKVSYLTPDNGSTVAKTYRNNTARKLFVEEQSQSTNYEQDKRFRQASSVHMNMNREQSFDIGTTHEVACPRNESNSLKRSIADICNETEDPTQQSTFAKRADTTVTWGKALPAADDEVSCSNIDRKGMLKKEKLKHMQGLLNSQNDTSNHKKQDNKEMEDGLGLTQVEKPRGIFD
- binding (Dna2-HA (S. cerevisiae)): no binding
- binding (Exo1-HA (S. cerevisiae)): no binding
- binding (Mec3-HA (S. cerevisiae)): binds
- binding (Sgs1-HA (S. cerevisiae)): no binding
